This is one part of the list. The full chains were built here from the parent and the listed change. Inactive controls read about 0.05.
B1: TEV protease; numbered along this chain (parent)
chain: MGESLFKGPRDYNPISSSICHLTNESDGHTTSLYGIGFGPFIITNKHLFRRNNGTLVVQSLHGVFKVKDTTTLQQHLVDGRDMIIIRMPKDFPPFPQKLKFREPQREERICLVTTNFQTKSMSSMVSDTSCTFPSGDGIFWKHWIQTKDGQCGSPLVSTRDGFIVGIHSASNFTNTNNYFTSVPKNFMELLTNQEAQQWVSGWRLNADSVLWGGHKVFMVKPEEPFQPVKEATQL

Variants of: B1
Assay: raw area under fraction-flipped curve 0-4 h after induction (AUC4h, not background-subtracted), DNA-recorder readout of cleavage of the substrate (dimensionless); higher = more cleavage of the substrate by the protease variant
Settings: temperature: 34 °C; time window: 0-4 h after rhamnose induction
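Also: Bxb1 expression induced with 0.2% (w/v) L-rhamnose at OD600 near 0.5, cultures sampled hourly, flipped fraction per protease–substrate barcode pair counted by paired-end Illumina sequencing.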

Variant	area with substrate FNLYFQS	area with substrate SNLYFQS	area with substrate TNLYFQS	area with substrate YNLYFQS	area with substrate HNLYFQS	area with substrate NNLYFQS	area with substrate WNLYFQS	area with substrate LNLYFQS	area with substrate PNLYFQS	area with substrate VNLYFQS	area with substrate GNLYFQS	area with substrate MNLYFQS	area with substrate QNLYFQS	area with substrate INLYFQS	area with substrate KNLYFQS	area with substrate RNLYFQS
MGESLFKGPRDYNPISSSICHLTNESDGHTTSLYGIGFGPFIITNKHLFRRNNGTLVVQSLHGVFKVKDTTTLQQHLVDGRDMIIIRMDKDFPPFPQKLKFREPQREERICLVTTNFQTKSMSSMVSDTSCTFPSGDGIFWKHWIQTKDGQCGSPLVSTRDGFIVGIHSASNFTNTNNYFTSVPKNFMELLTNQEAQQWVSGWRLNADSVLWGGHKVFMVKPEEPFQPVKEATQL [P89D]	0.0801	0.0449	0.06	0.063	–	–	–	–	–	–	–	–	–	–	–	–
MGESLFKGPRDYNPISSSICHLTNESDGHTTSLYGIGFGPFIITNKHLFRRNNGTLVVQSLHGVFKVKDTTTLQQHLVDGRDMIIIRMPKDFPPQPQKLKFREPQREERICLVTTNFQTKSMSSMVSDTSCTFPSGDGIFWKHWIQTKDGQCGSPLVSTRDGFIVGIHSASNFTNTNNYFTSVPKNFMELLTNQEAQQWVSGWRLNADSVLWGGHKVFMVKPEEPFQPVKEATQL [F95Q]	0.052	–	–	0.0417	0.0438	0.0263	0.0477	–	–	–	–	–	–	–	–	–
MGESLFKGPRDYNPISSSICHLTNESDGHTTSLYGIGFGPFIITNKHLFRRNNGTLVVQSLPGVFKVKDTTTLQQHLVDGRDMIIIRMPKDFPPFPQKLKFREPQREERICLVTTNFQTKSMSSMVSDTSCTFPSGDGIFWKHWIQTKDGQCGSPLVSTRDGFIVGIHSASNFTNTNNYFTSVPKNFMELLTNQEAQQWVSGWRLNADSVLWGGHKVFMVKPEEPFQPVKEATQL [H62P]	0.0611	0.0665	0.0941	–	0.0724	–	0.0569	0.0548	0.062	0.0752	–	–	–	–	–	–
MGESLFKGPRDYNPISSSICHLTNESDGHTTSLYGIGFGPFIITNKHLFRRNNGTLVVQSLQGVFKVKDTTTLQQHLVDGRDMIIIRMPKDFPPFPQKLKFREPQREERICLVTTNFQTKSMSSMVSDTSCTFPSGDGIFWKHWIQTKDGQCGSPLVSTRDGFIVGIHSASNFTNTNNYFTSVPKNFMELLTNQEAQQWVSGWRLNADSVLWGGHKVFMVKPEEPFQPVKEATQL [H62Q]	0.0582	–	–	–	0.0707	–	0.0599	–	0.0667	–	0.0966	0.0862	–	–	–	–
MGESLFKGPRDYNPISSSICHLTNESDGHTTSLYGIGFGPFIITNKHLFRRNNGTLVVQSLHGVFKVKDTTTLQQHLVDGRDMIIIRMPKYFPPFPQKLKFREPQREERICLVTTNFQTKSMSSMVSDTSCTFPSGDGIFWKHWIQTKDGQCGSPLVSTRDGFIVGIHSASNFTNTNNYFTSVPKNFMELLTNQEAQQWVSGWRLNADSVLWGGHKVFMVKPEEPFQPVKEATQL [D91Y]	0.0702	–	0.0613	0.0742	0.0608	–	0.0667	0.0645	0.0739	–	0.0735	–	0.0574	–	–	–
MGESLFKGPRDYNPISSSICHLTNESDGHTTSLYGIGFGPFIITNKHLFRRNNGTLVVQSLHGVFKVKDTTTLQQHLVDGRDMINIRMPKDFPPFPQKLKFREPQREERICLVTTNFQTKSMSSMVSDTSCTFPSGDGIFWKHWIQTKDGQCGSPLVSTRDGFIVGIHSASNFTNTNNYFTSVPKNFMELLTNQEAQQWVSGWRLNADSVLWGGHKVFMVKPEEPFQPVKEATQL [I85N]	0.0406	0.0477	0.0445	0.0425	0.0641	0.0476	–	0.0445	0.0555	–	0.0485	0.0635	–	0.0428	0.0263	0.046
MGESLFKGPRDYNPISSSICHLTNESDGHTTSLYGIGFGPFIITNKHLFRRNNGTLVVQSLHGVFKVKVTTTLQQHLVDGRDMIIIRMPKDFPPFPQKLKFREPQREERICLVTTNFQTKSMSSMVSDTSCTFPSGDGIFWKHWIQTKDGQCGSPLVSTRDGFIVGIHSASNFTNTNNYFTSVPKNFMELLTNQEAQQWVSGWRLNADSVLWGGHKVFMVKPEEPFQPVKEATQL [D69V]	0.0476	0.0631	0.0502	0.0667	0.063	0.0583	0.0556	0.0413	0.0612	0.0629	–	–	–	–	0.0563	–
MGESLFKGPRDYNPISSSICHLTNESDGHTTSLYGIGFGPFIITNKHLFRRNNGTLVVQNLHGVFKVKDTTTLQQHLVDGRDMIIIRMPKDFPPFPQKLKFREPQREERICLVTTNFQTKSMSSMVSDTSCTFPSGDGIFWKHWIQTKDGQCGSPLVSTRDGFIVGIHSASNFTNTNNYFTSVPKNFMELLTNQEAQQWVSGWRLNADSVLWGGHKVFMVKPEEPFQPVKEATQL [S60N]	0.0544	–	0.0555	0.0581	–	0.0891	0.0833	–	–	0.057	0.0741	0.0735	–	0.0554	0.0694	–
MGESLFKGPRDYNPISSSICHLTNESDGHTTSLYGIGFGPFIITNKHLFRRNNGTLVVQILHGVFKVKDTTTLQQHLVDGRDMIIIRMPKDFPPFPQKLKFREPQREERICLVTTNFQTKSMSSMVSDTSCTFPSGDGIFWKHWIQTKDGQCGSPLVSTRDGFIVGIHSASNFTNTNNYFTSVPKNFMELLTNQEAQQWVSGWRLNADSVLWGGHKVFMVKPEEPFQPVKEATQL [S60I]	0.0486	–	–	–	0.0744	–	0.0503	–	0.0575	–	0.0504	0.0634	–	–	–	–
MGESLFKGPRDYNPISSSICHLTNESDGHTTSLYGIGFGPFIITNKHLFRRNNGTLVVQSLHGVFKVKDTTTLQQHLVDGRDMIIIRMPKDFPPFPQKLKFLEPQREERICLVTTNFQTKSMSSMVSDTSCTFPSGDGIFWKHWIQTKDGQCGSPLVSTRDGFIVGIHSASNFTNTNNYFTSVPKNFMELLTNQEAQQWVSGWRLNADSVLWGGHKVFMVKPEEPFQPVKEATQL [R102L]	0.0453	0.052	0.0633	0.0483	0.047	–	–	–	0.0366	–	0.0617	0.0437	–	–	–	–
MGESLFKGPRDYNPISSSICHLTNESDGHTTSLYGIGFGPFIITNKHLFRRNNGTLVVQSLHGVFKVKDTTTLQQHLVDGRDMLIIRMPKDFPPFPQKLKFREPQREERICLVTTNFQTKSMSSMVSDTSCTFPSGDGIFWKHWIQTKDGQCGSPLVSTRDGFIVGIHSASNFTNTNNYFTSVPKNFMELLTNQEAQQWVSGWRLNADSVLWGGHKVFMVKPEEPFQPVKEATQL [I84L]	0.0619	0.0625	0.0598	0.0542	0.0598	0.0754	0.0558	0.062	0.0712	–	–	0.0712	–	0.0783	–	–
MGESLFKGPRDYNPISSSICHLTNESDGHTTSLYGIGFGPFIITNKHLFRRNNGTLVVQSLHGVFKVKDTTTLQQHLVDGRDMIIIEMPKDFPPFPQKLKFREPQREERICLVTTNFQTKSMSSMVSDTSCTFPSGDGIFWKHWIQTKDGQCGSPLVSTRDGFIVGIHSASNFTNTNNYFTSVPKNFMELLTNQEAQQWVSGWRLNADSVLWGGHKVFMVKPEEPFQPVKEATQL [R87E]	0.0726	–	–	–	0.0609	–	0.0552	–	0.0925	0.0648	–	0.0757	–	–	0.067	–
MGESLFKGPRDYNPISSSICHLTNESDGHTTSLYGIGFGPFIITNKHLFRRNNGTLVVQSLHGVKKVKDTTTLQQHLVDGRDMIIIRMPKDFPPFPQKLKFREPQREERICLVTTNFQTKSMSSMVSDTSCTFPSGDGIFWKHWIQTKDGQCGSPLVSTRDGFIVGIHSASNFTNTNNYFTSVPKNFMELLTNQEAQQWVSGWRLNADSVLWGGHKVFMVKPEEPFQPVKEATQL [F65K]	0.0753	0.058	0.0599	–	0.0488	0.0678	0.0577	0.0668	–	–	0.067	0.0656	–	0.0672	0.0634	–
MGESLFKGPRDYNPISSSICHLTNESDGHTTSLYGIGFGPFIITNKHLFRRNNGTLVVQSLHGVCKVKDTTTLQQHLVDGRDMIIIRMPKDFPPFPQKLKFREPQREERICLVTTNFQTKSMSSMVSDTSCTFPSGDGIFWKHWIQTKDGQCGSPLVSTRDGFIVGIHSASNFTNTNNYFTSVPKNFMELLTNQEAQQWVSGWRLNADSVLWGGHKVFMVKPEEPFQPVKEATQL [F65C]	0.0536	0.0641	0.067	–	0.0625	0.0626	0.0487	0.0589	–	0.0639	–	0.0686	–	0.0212	0.0542	0.0565
MGESLFKGPRDYNPISSSICHLTNESDGHTTSLYGIGFGPFIITNKHLFRRNNGTLVVQSLHGVFKVKDTTTLQQHLVDGRDMIIIRMPKDFPPFPQKAKFREPQREERICLVTTNFQTKSMSSMVSDTSCTFPSGDGIFWKHWIQTKDGQCGSPLVSTRDGFIVGIHSASNFTNTNNYFTSVPKNFMELLTNQEAQQWVSGWRLNADSVLWGGHKVFMVKPEEPFQPVKEATQL [L99A]	0.084	–	0.0607	–	–	0.0772	0.0638	–	–	–	0.0658	0.0626	–	–	0.0606	–
MGESLFKGPRDYNPISSSICHLTNESDGHTTSLYGIGFGPFIITNKHLFRRNNGTLVVQSLHGVFKVKDTTTLQQHLVDGRDMIIIRMPTDFPPFPQKLKFREPQREERICLVTTNFQTKSMSSMVSDTSCTFPSGDGIFWKHWIQTKDGQCGSPLVSTRDGFIVGIHSASNFTNTNNYFTSVPKNFMELLTNQEAQQWVSGWRLNADSVLWGGHKVFMVKPEEPFQPVKEATQL [K90T]	0.0613	0.0487	0.066	0.0548	0.0587	0.0719	–	0.081	0.0691	–	–	0.0647	–	0.0156	0.0741	–
MGESLFKGPRDYNPISSSICHLTNESDGHTTSLYGIGFGPFIITNKHLFRRNNGTLVVQSLHGVFKVKDTTTLQSHLVDGRDMIIIRMPKDFPPFPQKLKFREPQREERICLVTTNFQTKSMSSMVSDTSCTFPSGDGIFWKHWIQTKDGQCGSPLVSTRDGFIVGIHSASNFTNTNNYFTSVPKNFMELLTNQEAQQWVSGWRLNADSVLWGGHKVFMVKPEEPFQPVKEATQL [Q75S]	0.0509	–	0.0674	–	0.0594	–	–	–	0.057	–	–	0.0404	–	–	–	–
MGESLFKGPRDYNPISSSICHLTNESDGHTTSLYGIGFGPFIITNKHLFRRNNGTLVVQSLHGVFKVKDTTTLQGHLVDGRDMIIIRMPKDFPPFPQKLKFREPQREERICLVTTNFQTKSMSSMVSDTSCTFPSGDGIFWKHWIQTKDGQCGSPLVSTRDGFIVGIHSASNFTNTNNYFTSVPKNFMELLTNQEAQQWVSGWRLNADSVLWGGHKVFMVKPEEPFQPVKEATQL [Q75G]	0.0367	–	0.069	–	0.0586	–	0.0771	0.0594	–	–	0.0541	–	–	0.0586	–	–
MGESLFKGPRDYNPISSSICHLTNESDGHTTSLYGIGFGPFIITNKHLFRRNNGTLVVQSLHGVFKVKDTTTLQYHLVDGRDMIIIRMPKDFPPFPQKLKFREPQREERICLVTTNFQTKSMSSMVSDTSCTFPSGDGIFWKHWIQTKDGQCGSPLVSTRDGFIVGIHSASNFTNTNNYFTSVPKNFMELLTNQEAQQWVSGWRLNADSVLWGGHKVFMVKPEEPFQPVKEATQL [Q75Y]	0.0577	0.0547	–	0.0476	0.0579	0.0768	0.0532	–	0.0575	–	–	–	–	–	0.0508	0.0717
MGESLFKGPRDYNPISSSICHLTNESDGHTTSLYGIGFGPFIITNKHLFRRNNGTLVVQSLHGVFKVKDTTTLQQHLVDGRDMIIIRMPKDFPPFPQHLKFREPQREERICLVTTNFQTKSMSSMVSDTSCTFPSGDGIFWKHWIQTKDGQCGSPLVSTRDGFIVGIHSASNFTNTNNYFTSVPKNFMELLTNQEAQQWVSGWRLNADSVLWGGHKVFMVKPEEPFQPVKEATQL [K98H]	0.0618	0.0645	–	0.0535	0.0606	0.0691	–	0.0599	0.0691	0.0677	–	0.0694	0.0661	0.0661	0.0666	–

Reference: the supplement of paper PMC12217912
